# Test results from PubChem BioAssay AID2100 (National Center for Advancing Translational Sciences (NCATS), 2009).
# In all, about 300,000 compounds went through this assay and about 1,200 (0.4%) were called active. Inconclusive results, whose numbers are uncertain, are shown with a selection of clear calls. Calls follow the shape of the dose curve; as a rule, active = well fitted inhibition curve with a large enough effect; inconclusive = small, poorly fitted or top-dose-only effect, or another doubt; inactive = no such curve, though single readings can be large or run the other way. Potencies beside an inconclusive call are fits to weak or partial responses and may not hold up.
# Target: Lysosomal alpha-glucosidase (Homo sapiens) (UniProt P10253)
# Experiment: qHTS Assay for Inhibitors and Activators of Human alpha-Glucosidase Cleavage of Glycogen
# Settings: recombinant GAA, glycogen substrate, Amplex Red glucose oxidase fluorescence; series mostly up to 76.4 µM
# Outline: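 qHTS, 1536-well; enzyme 4 nM final; cpd up to 77 uM; substrate bovine liver glycogen 30 ug; 50 mM citrate/phosphate pH 5.0, 0.01% Tween-20; 37 C, 40 min; Amplex Red detection 45 min RT; Hill fit → AC50.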
# Potency is read from the fitted curve at half-maximal effect.
row,Compound,Potency
1,CC(=O)N1CCC(=NNc2nc3ccccc3[nH]2)CC1,"inconclusive: 3.16 µM [inhibitor, full curve]"
2,CCOC(=O)C1=C(C)NC(C)=C(C(=O)OCC)C1c1ccc(OC)cc1,"inconclusive: 11.1 µM [inhibitor, partial curve]"
3,CCOc1ccc(Nc2nc(Cc3nnc(SCC(=O)NC4CCCC4)n3C)cs2)cc1,"inconclusive: 22.4 µM [inhibitor, partial curve]"
4,CCOC(=O)C1=C(CS(=O)(=O)c2ccc(C)cc2)NC(=O)NC1c1cc(OC)c(O)c(OC)c1 (centres undefined),"inconclusive: 50.1 µM [inhibitor, single point]"
5,O=C(NNS(=O)(=O)c1ccc(Cl)cc1)c1cccs1,"inconclusive: 22.2 µM [inhibitor, partial curve]"
6,COc1ccc(-c2csc(Nc3ccccc3)n2)cc1,"inconclusive: 28.2 µM [inhibitor, single point]"
7,O=C(Oc1ccc2c(c1)OCO2)c1ccncc1,"inconclusive: 28 µM [inhibitor, partial curve]"
8,CCC1CCCCN1C(=O)CSc1nc(-c2ccc(OC)cc2)cc(C(F)(F)F)n1 (centres undefined),inactive
9,Nc1ccc(-c2sc(N)nc2-c2ccccc2)cc1,active: 14 µM
10,O=c1c(O)c(-c2cccs2)oc2ccccc12,"inconclusive: 8.91 µM [inhibitor, full curve]"
11,CC(C)c1ccc(NC(=O)CN(C)S(=O)(=O)c2ccc3c(c2)n(C)c(=O)c(=O)n3C)cc1,inactive
12,Clc1cccc(/C(Cc2nc3ccccc3[nH]2)=N\Nc2ccccc2)c1,"inconclusive: 39.5 µM [inhibitor, single point]"
13,COC(=O)c1ccccc1NC(=O)CSc1c2c(nc3ccc(Cl)cc13)CCCC2,inactive
14,CCn1cc(/C=C(\NC(=O)c2ccc(OC)cc2)C(=O)N2CCN(C)CC2)c2ccccc21,"inconclusive: 56.2 µM [inhibitor, partial curve]"
15,C=C(c1ccc(O)cc1)c1ccc(O)cc1,inactive
16,O=c1c2cc3c(=O)n(-c4ccccc4O)c(=O)c3cc2c(=O)n1-c1ccccc1O,"inconclusive: 25.1 µM [inhibitor, partial curve]"
17,CCc1ccc(S(=O)(=O)Nc2ccc3oc(C)c(C(=O)OCCOC)c3c2)cc1,inactive
18,C/C(=N\NC(=O)c1ccccc1F)c1ccc2c(c1)Nc1ccccc1S2,active: 25.1 µM
19,COc1cc(/C=N/Nc2ccccc2C(F)(F)F)ccc1O,active: 35.5 µM
20,COc1ccc(C)cc1NC(=O)C(=O)N/N=C(\C)CC(=O)Nc1cccnc1,"inconclusive: 39.5 µM [inhibitor, single point]"
21,Cc1ccc(Sc2c(C)nn(-c3ccccc3)c2OC(=O)CC(C)C)cc1,"inconclusive: 22.4 µM [inhibitor, partial curve]"
22,Cc1csc(N/N=C/c2c(F)cccc2Cl)n1,"inconclusive: 50.1 µM [inhibitor, partial curve]"
23,COc1ccc(OC)c(CNc2ncc(-c3ccc(Cl)cc3)n2C)c1,"inconclusive: 56.2 µM [inhibitor, partial curve, poor fit]"

row,Compound,Potency
1,O=C(Nc1ccccc1N1CCCC1)c1ccco1,"inconclusive: 22.4 µM [inhibitor, partial curve]"
2,Cc1ccccc1NC(=O)C1CCN(S(=O)(=O)c2cccc3nonc23)CC1,"inconclusive: 11.2 µM [inhibitor, single point]"
3,N#Cc1nc(Cc2cccc3ccccc23)oc1NCc1ccc2c(c1)OCO2,"inconclusive: 35.5 µM [inhibitor, single point]"
4,Fc1ccc(N/N=C(/c2ccccc2)c2ccccn2)cc1,"inconclusive: 17.8 µM [inhibitor, partial curve]"
5,Cc1ccc(C=Nc2ccc(N(C)C)cc2)o1,"inconclusive: 22.4 µM [inhibitor, partial curve]"
6,CC(=O)c1ccc(N=C2SCCCN2C(=O)C2CCCC2)cc1,"inconclusive: 15.8 µM [inhibitor, partial curve, poor fit]"
7,COCCN(C)Cc1cn(-c2ccc(F)cc2F)nc1-c1ccccc1C,"inconclusive: 15.8 µM [inhibitor, partial curve]"
8,O=C(CCS(=O)(=O)c1nc(-c2ccc3c(c2)OCO3)cc(C(F)(F)F)n1)Nc1ccccc1C(F)(F)F,inactive
9,FC(F)(F)c1cnc(NNC(=S)Nc2cccnc2)c(Cl)c1,"inconclusive: 28.2 µM [inhibitor, partial curve]"
10,O=C(CC1C(=O)N(Cc2ccccc2)C(=S)N1CCN1CCOCC1)Nc1ccc(F)cc1 (centres undefined),"inconclusive: 50.1 µM [inhibitor, single point]"
11,CCCn1c(CNc2ccccc2O)nc2ccccc21,active: 12.5 µM
12,NC(=S)N/N=C/c1cn(CCC(=O)O)nc1-c1cccc(Br)c1,"inconclusive: 20 µM [inhibitor, partial curve]"
13,COc1ccc2oc(=O)cc(CN3CCN(C(=O)c4ccccc4Br)CC3)c2c1,inactive
14,CCOc1cc(CN2CCN(c3cccc(C(F)(F)F)c3)CC2)ccc1O,"inconclusive: 31.4 µM [inhibitor, single point]"
15,Cc1cccc2cc(/C=N/Nc3ccc(C(=O)O)cc3)c(Cl)nc12,"inconclusive: 14.1 µM [inhibitor, partial curve]"
16,Cc1ccc(C(C)C)c(OCc2ccc(C(=O)Nc3ccc(S(N)(=O)=O)cc3C)o2)c1,inactive
17,Cc1ccc2nc(-c3ccco3)c(Nc3ccccc3)n2c1,"inconclusive: 12.6 µM [inhibitor, partial curve]"
18,CCN(CC)c1ccc(/C=N/NC(=O)OC)c(O)c1,"inconclusive: 25.1 µM [inhibitor, single point]"
19,O=C(CSc1nc2ccccc2o1)N/N=C/c1ccc(O)c(O)c1,"inconclusive: 4.47 µM [inhibitor, full curve]"
20,Cc1ccnc(SCCn2c(N3CCN(c4ccccc4)CC3)nc3c2c(=O)[nH]c(=O)n3C)n1,"inconclusive: 20 µM [activator, partial curve]"
21,Cc1cccc(C(C#N)c2ccc(Cl)nn2)c1 (centres undefined),"inconclusive: 22.4 µM [inhibitor, partial curve]"
22,CC1=C(C(=O)Nc2ccc(F)cc2)C(c2ccc(N(C)C)cc2)NC(=O)N1 (centres undefined),"inconclusive: 25.1 µM [inhibitor, partial curve]"
23,O=C1C=CC(=O)C(C2=C3C(=O)N(CCc4ccccc4)CC(=O)N3CCC2)=C1,inactive

row,Compound,Potency
1,O=C(O)c1cc(N/N=C/c2cccc3ccccc23)ccc1Cl,"inconclusive: 35.5 µM [inhibitor, single point]"
2,COc1ccc(C(=O)CSc2nnc(-c3ccco3)c(-c3ccco3)n2)cc1,"inconclusive: 44.3 µM [inhibitor, single point]"
3,Cc1ccccc1-n1c2nc(=O)[nH]c(=O)c-2cc2c(Cl)cccc21,inactive
4,CCc1c(C(=O)NNC(=S)NCC(C)C)csc1C,"inconclusive: 17.6 µM [inhibitor, single point]"
5,COCCCN1C(=O)c2[nH]nc(-c3ccccc3O)c2C1c1ccc(OC)cc1 (centres undefined),inactive
6,O=C(NCc1n[nH]c(=S)n1-c1ccc(Cl)c(Cl)c1)c1ccco1,inactive
7,Fc1ccc2c(c1)[C@H]1OCC[C@H]1[C@@H](c1ccco1)N2,"inconclusive: 14.1 µM [inhibitor, partial curve]"
8,Cc1cccn2c(Nc3ccccc3)c(-c3ccc(N4CCOCC4)cc3)nc12,active: 3.98 µM
9,NNC(=O)CN1CCCc2ccccc21,"inconclusive: 50.1 µM [inhibitor, single point]"
10,O=C(CSCc1ccc(Cl)cc1)N1CCCCC1,"inconclusive: 8.84 µM [inhibitor, single point]"
11,C/C(=N\N1CCN(Cc2ccc(Cl)cc2)CC1)c1ccc([N+](=O)[O-])cc1,"inconclusive: 22.4 µM [inhibitor, partial curve]"
12,CCc1ccc2[nH]c3nc(N/N=C/c4ccc(O)cc4O)nnc3c2c1,"inconclusive: 22.4 µM [inhibitor, partial curve]"
13,CC1(C(=O)NC(=S)NNC(=O)c2ccncc2)CCCCC1,"inconclusive: 31.6 µM [inhibitor, partial curve]"
14,CCc1nnc(SCC(=O)N(C)c2ccccc2)c2cc3sccc3n12,"inconclusive: 3.55 µM [inhibitor, partial curve]"
15,Cc1cc(C)nc(-n2nc(C)cc2Nc2ccccc2)n1,inactive
16,COc1ccc(-n2c(C)cc(/C=N/Nc3nnc(C)n3N)c2C)cc1,"inconclusive: 17.8 µM [inhibitor, partial curve]"
17,COc1ccc(-c2ccc(CNc3ccc4[nH]c(=O)[nH]c4c3)o2)cc1Cl,"inconclusive: 3.55 µM [inhibitor, full curve]"
18,Oc1cccc(/C=N/N2CCCCC2)c1O,"inconclusive: 2.82 µM [inhibitor, partial curve]"
19,Cc1ccc([C@H]2Nc3ccc(S(=O)(=O)Nc4cccc(Cl)c4C)cc3[C@H]3C=CC[C@H]32)cc1,"inconclusive: 28.2 µM [activator, single point]"
20,Cc1ccc(CSCC(Nc2ccc(C(=O)O)cc2[N+](=O)[O-])C(=O)O)cc1 (centres undefined),"inconclusive: 31.6 µM [inhibitor, single point]"
21,Cc1cc(C)c(Cn2c(CCNC(=O)c3ccco3)nc3ccccc32)c(C)c1,inactive
22,Cc1cccc(-c2ccc(C=Nc3c(C)n(C)n(-c4ccccc4)c3=O)o2)c1,active: 3.95 µM
23,O=C(O)c1ccc(/C=N/n2cc(-c3ccccc3)[nH]c2=S)cc1,active: 28.2 µM
